The campaign covered roughly 150,000 compounds. About 540 (0.36%) showed an effect of 50% or more. This is one part of the list.
test system: Plasmodium falciparum; assay: Primary screen in NF54 nanoGlo assay, in single point, at 2uM, 72h; a lower Z score goes with more inhibition; format: functional, Erythrocyte; conditions: timepoint 72 hour

First: O=C(OCc1ccccc1)[C@@H]1CCCN1C(=O)CCc1cccnc1
Second: COCc1ccc(C(=O)N2CCNC(=O)[C@@H]2Cc2ccccc2)s1
The “% Inhibition” value of the first is lower: -10% for the first, 5% for the second.

Compared with O=C(Nc1cnc(-n2ccnc2)nc1)C(c1ccccc1)c1ccccc1, CC(=O)Nc1c(-c2ccccc2)c(C)nn1-c1ccc(C(=O)N2CCN(c3ncccn3)CC2)cc1 is lower in “% Inhibition” value: 32% for the first, 11% for the second.

Compared with O=C(CCc1ccc(F)cc1)Nc1cccc(-c2n[nH]c(=O)[nH]2)c1, O=C(Nc1cccc(C(F)(F)F)c1)c1ccccc1C(=O)c1ncc[nH]1 is lower in “% Inhibition” value: 8% for the first, -11% for the second.

First: O=C(NCC1CCCO1)C1CCCN(c2cc3c(nn2)CCC3)C1 (stereo not drawn)
Second: CCn1ccc(C(=O)N2CC[C@H](c3nc(CCOCC4CCOCC4)no3)C2)n1
The “% Inhibition” value of the first is higher: 2% for the first, -10% for the second.

Compared with Cc1ccc(S(=O)(=O)N2CCC(N3CCCCCC3)CC2)cc1, Cc1cc(C)cc(N(C(=O)C2CCN(S(C)(=O)=O)CC2)c2nc(-c3ccc(F)cc3)cs2)c1 is higher in “% Inhibition” value: -10% for the first, -7% for the second.

Compared with COc1ccc(Cc2nc(CCO)n(-c3cc(C)ccn3)n2)cc1OC, NC(=O)Cc1nc(CCCc2cn[nH]c2)n(-c2ccncc2)n1 is higher in “% Inhibition” value: -7% for the first, 8% for the second.

First: N#Cc1nc(C2CC2c2ccccc2)oc1N1CCCCCC1 (stereo not drawn)
Second: Cn1c(=O)cnc2ccc(N3CCCC3)nc21
The “% Inhibition” value of the first is higher: 3% for the first, 0% for the second.

First: Cc1c(C(=O)N2CCC[C@H](NC(=O)N(C)C)C2)cnn1C(C)C
Second: CN(Cc1ccc(Cl)c(F)c1)C(=O)NC1CCCC(C(N)=O)C1 (stereo not drawn)
The “% Inhibition” value of the first is higher: 8% for the first, 0% for the second.

Compared with Cc1cccc(C(=O)Nc2cc(C(=O)O)ccc2N(C)CCc2c(C)nn(C)c2C)c1, CC(=O)NCc1ccc(-c2noc(Cc3c(Cl)cccc3Cl)n2)s1 is higher in “% Inhibition” value: -9% for the first, 0% for the second.

Compared with O=S(=O)(c1ccc2c(c1)OCCCO2)N(CCc1nc2ccccc2s1)S(=O)(=O)c1ccc2c(c1)OCCCO2, N#Cc1ccc(CN2CCN3C(=O)c4ccccc4OCC[C@@H]4CCC[C@@H](CNC(=O)[C@@H]3C2)O4)cc1 is higher in “% Inhibition” value: -3% for the first, 21% for the second.

First: CCn1ncc(CN2CCC3(CC[C@@H]3OCc3nc(C)no3)CC2)c1C
Second: CCNc1nc(C)c(C(=O)N(C)Cc2cc(C)on2)s1
The “% Inhibition” value of the first is higher: -14% for the first, -18% for the second.

Going from COCCC(=O)N(Cc1cscn1)c1ccccc1 to COCCN1CCN(C(=O)[C@@H]2COc3ccccc3C2)CC1=O, the “% Inhibition” value falls from -4% to -14%.

Going from CCN(Cc1cc(CC(C)C)[nH]n1)CC(F)(F)F to CC(C)c1nc(CN(C)S(=O)(=O)Cc2ccc(Cl)cc2F)cs1, the “% Inhibition” value falls from 5% to 0%.

Compared with O=C(C1CC(=O)N(c2ccc(F)cc2)C1)N1CCC(c2ccccc2F)S(=O)(=O)CC1 (stereo not drawn), C[C@@]1(C2CCN(Cc3ccccc3)CC2)NC(=O)N(C2Cc3ccccc3C2)C1=O is higher in “% Inhibition” value: -7% for the first, 17% for the second.

Going from CCn1c(C)cc(O)c([C@H](c2ccncc2)N2CCC(Cc3ccccc3)CC2)c1=O to CN(C)[C@@H]1CN(C(=O)c2ccncc2)CC[C@@]1(O)c1ccccc1, the “% Inhibition” value falls from 15% to 0%.

Compared with Cc1cnccc1CC(=O)N1CCC(C)C1c1cccc(F)c1 (stereo not drawn), Cc1ccc(F)cc1S(=O)(=O)N(Cc1cccnc1)C1CC1 is higher in “% Inhibition” value: -9% for the first, -2% for the second.

Compared with COc1ccc(COCc2ncc[nH]2)cn1, CC[C@H](NC(=O)NCc1ncccn1)c1ccc(OC(F)F)cc1 is lower in “% Inhibition” value: 30% for the first, 17% for the second.

Going from CC(C)(C)C[C@H]1CCN(C(=O)NCc2ccc(=O)[nH]n2)C1(C)C to O=C(NCC#CCN1CCc2ccccc2C1)c1ccc(=O)[nH]n1, the “% Inhibition” value rises from -4% to 5%.

Compared with CC(C)c1ncc(CN(C)Cc2ncon2)cn1, CC(C)Nc1ncc(-c2nc(CC(N)=O)nn2-c2cccnc2)cn1 is higher in “% Inhibition” value: -10% for the first, -2% for the second.

Compared with CN(CC(=O)c1ccc(O)cc1)C(=O)CCCN1CCCCC1, CC1CCN(C(=O)COCc2nnc(C(=O)Nc3ccc(F)cc3)s2)CC1 is lower in “% Inhibition” value: 13% for the first, -10% for the second.

Compared with C[C@@H](CCN1CC(N2CCOCC2)C1)c1ccccc1, O=C1c2ccccc2C(=O)N1C[C@H]1CCCCO1 is lower in “% Inhibition” value: -3% for the first, -4% for the second.

Going from CN(C)C1(CNS(=O)(=O)CCOc2ccccc2F)CCCCC1 to CC(C)(C)OC(=O)NCC1CCN(C(=O)[C@@H]2Cc3ccccc3O2)CC1, the “% Inhibition” value rises from -2% to 2%.

First: CC(=O)Nc1nc(C(=O)NCCOc2ccc3c(c2)OCO3)cs1
Second: CC(=O)N[C@@H](Cc1c[nH]c2ccccc12)C(=O)N1CCC(C)CC1
The “% Inhibition” value of the first is lower: -8% for the first, 1% for the second.

Going from CCNC(=NCc1cccc(N(C)C)n1)NCC to CN(C)C(=O)N1CCN(c2ccc3ccc(F)cc3n2)CC1, the “% Inhibition” value falls from -10% to -16%.

Going from CCn1cc(S(=O)(=O)NCc2nc(-c3cccs3)n[nH]2)cn1 to Cc1cc(NC(=O)CN(C)S(C)(=O)=O)cc(C)c1Br, the “% Inhibition” value rises from -1% to 1%.

Going from O=C(Nc1ccc(-c2nccn2C(F)F)cc1)N1CCC[C@@H]1CO to O=C(NC1CC1)NC1CCN(C(=O)c2cccc(F)c2)CC1, the “% Inhibition” value rises from -13% to -3%.

Compared with CC(C)CN1C[C@@H](c2ncnn2CCO)CC1=O, O=C(NC1CCCC1)N1CC(n2nccn2)C1 is higher in “% Inhibition” value: -14% for the first, 2% for the second.

First: O=C(OCc1ccccc1)[C@@H]1CCCN1C(=O)CCc1cccnc1
Second: COCc1ccc(C(=O)N2CCNC(=O)[C@@H]2Cc2ccccc2)s1
The Z score of the first is higher: 1.37 for the first, -0.91 for the second.

First: O=C(Nc1cnc(-n2ccnc2)nc1)C(c1ccccc1)c1ccccc1
Second: CC(=O)Nc1c(-c2ccccc2)c(C)nn1-c1ccc(C(=O)N2CCN(c3ncccn3)CC2)cc1
The Z score of the first is lower: -2.7 for the first, -1.25 for the second.

First: O=C(CCc1ccc(F)cc1)Nc1cccc(-c2n[nH]c(=O)[nH]2)c1
Second: O=C(Nc1cccc(C(F)(F)F)c1)c1ccccc1C(=O)c1ncc[nH]1
The Z score of the first is lower: -1.28 for the first, 1.51 for the second.

First: O=C(NCC1CCCO1)C1CCCN(c2cc3c(nn2)CCC3)C1 (stereo not drawn)
Second: CCn1ccc(C(=O)N2CC[C@H](c3nc(CCOCC4CCOCC4)no3)C2)n1
The Z score of the first is lower: -0.28 for the first, 1.25 for the second.

Going from Cc1ccc(S(=O)(=O)N2CCC(N3CCCCCC3)CC2)cc1 to Cc1cc(C)cc(N(C(=O)C2CCN(S(C)(=O)=O)CC2)c2nc(-c3ccc(F)cc3)cs2)c1, the Z score falls from 1.27 to 0.9.

First: COc1ccc(Cc2nc(CCO)n(-c3cc(C)ccn3)n2)cc1OC
Second: NC(=O)Cc1nc(CCCc2cn[nH]c2)n(-c2ccncc2)n1
The Z score of the first is higher: 0.93 for the first, -1.4 for the second.

Compared with N#Cc1nc(C2CC2c2ccccc2)oc1N1CCCCCC1 (stereo not drawn), Cn1c(=O)cnc2ccc(N3CCCC3)nc21 is higher in Z score: -0.35 for the first, 0.07 for the second.

First: Cc1c(C(=O)N2CCC[C@H](NC(=O)N(C)C)C2)cnn1C(C)C
Second: CN(Cc1ccc(Cl)c(F)c1)C(=O)NC1CCCC(C(N)=O)C1 (stereo not drawn)
The Z score of the first is lower: -1.22 for the first, -0.04 for the second.

Compared with Cc1cccc(C(=O)Nc2cc(C(=O)O)ccc2N(C)CCc2c(C)nn(C)c2C)c1, CC(=O)NCc1ccc(-c2noc(Cc3c(Cl)cccc3Cl)n2)s1 is lower in Z score: 1.34 for the first, -0.05 for the second.

First: O=S(=O)(c1ccc2c(c1)OCCCO2)N(CCc1nc2ccccc2s1)S(=O)(=O)c1ccc2c(c1)OCCCO2
Second: N#Cc1ccc(CN2CCN3C(=O)c4ccccc4OCC[C@@H]4CCC[C@@H](CNC(=O)[C@@H]3C2)O4)cc1
The Z score of the first is higher: 0.68 for the first, -2.76 for the second.

Going from CCn1ncc(CN2CCC3(CC[C@@H]3OCc3nc(C)no3)CC2)c1C to CCNc1nc(C)c(C(=O)N(C)Cc2cc(C)on2)s1, the Z score rises from 1.79 to 2.63.

First: COCCC(=O)N(Cc1cscn1)c1ccccc1
Second: COCCN1CCN(C(=O)[C@@H]2COc3ccccc3C2)CC1=O
The Z score of the first is lower: 0.49 for the first, 2.34 for the second.

Going from CCN(Cc1cc(CC(C)C)[nH]n1)CC(F)(F)F to CC(C)c1nc(CN(C)S(=O)(=O)Cc2ccc(Cl)cc2F)cs1, the Z score rises from -0.62 to 0.

First: O=C(C1CC(=O)N(c2ccc(F)cc2)C1)N1CCC(c2ccccc2F)S(=O)(=O)CC1 (stereo not drawn)
Second: C[C@@]1(C2CCN(Cc3ccccc3)CC2)NC(=O)N(C2Cc3ccccc3C2)C1=O
The Z score of the first is higher: 1.25 for the first, -2.18 for the second.

Compared with CCn1c(C)cc(O)c([C@H](c2ccncc2)N2CCC(Cc3ccccc3)CC2)c1=O, CN(C)[C@@H]1CN(C(=O)c2ccncc2)CC[C@@]1(O)c1ccccc1 is higher in Z score: -1.87 for the first, 0.04 for the second.

Compared with Cc1cnccc1CC(=O)N1CCC(C)C1c1cccc(F)c1 (stereo not drawn), Cc1ccc(F)cc1S(=O)(=O)N(Cc1cccnc1)C1CC1 is lower in Z score: 1.16 for the first, 0.29 for the second.

Compared with COc1ccc(COCc2ncc[nH]2)cn1, CC[C@H](NC(=O)NCc1ncccn1)c1ccc(OC(F)F)cc1 is higher in Z score: -3.38 for the first, -2.16 for the second.

Compared with CC(C)(C)C[C@H]1CCN(C(=O)NCc2ccc(=O)[nH]n2)C1(C)C, O=C(NCC#CCN1CCc2ccccc2C1)c1ccc(=O)[nH]n1 is lower in Z score: 0.41 for the first, -0.54 for the second.

Going from CC(C)c1ncc(CN(C)Cc2ncon2)cn1 to CC(C)Nc1ncc(-c2nc(CC(N)=O)nn2-c2cccnc2)cn1, the Z score falls from 1.28 to 0.34.

First: CN(CC(=O)c1ccc(O)cc1)C(=O)CCCN1CCCCC1
Second: CC1CCN(C(=O)COCc2nnc(C(=O)Nc3ccc(F)cc3)s2)CC1
The Z score of the first is lower: -1.73 for the first, 1.48 for the second.

First: C[C@@H](CCN1CC(N2CCOCC2)C1)c1ccccc1
Second: O=C1c2ccccc2C(=O)N1C[C@H]1CCCCO1
The Z score of the first is higher: 0.5 for the first, 0.46 for the second.

First: CN(C)C1(CNS(=O)(=O)CCOc2ccccc2F)CCCCC1
Second: CC(C)(C)OC(=O)NCC1CCN(C(=O)[C@@H]2Cc3ccccc3O2)CC1
The Z score of the first is higher: 0.19 for the first, -0.33 for the second.

Going from CC(=O)Nc1nc(C(=O)NCCOc2ccc3c(c2)OCO3)cs1 to CC(=O)N[C@@H](Cc1c[nH]c2ccccc12)C(=O)N1CCC(C)CC1, the Z score falls from 1.52 to -0.06.

Going from CCNC(=NCc1cccc(N(C)C)n1)NCC to CN(C)C(=O)N1CCN(c2ccc3ccc(F)cc3n2)CC1, the Z score rises from 1.01 to 1.92.

First: CCn1cc(S(=O)(=O)NCc2nc(-c3cccs3)n[nH]2)cn1
Second: Cc1cc(NC(=O)CN(C)S(C)(=O)=O)cc(C)c1Br
The Z score of the first is higher: 0.12 for the first, -0.21 for the second.

First: O=C(Nc1ccc(-c2nccn2C(F)F)cc1)N1CCC[C@@H]1CO
Second: O=C(NC1CC1)NC1CCN(C(=O)c2cccc(F)c2)CC1
The Z score of the first is higher: 2.23 for the first, 0.44 for the second.

Going from CC(C)CN1C[C@@H](c2ncnn2CCO)CC1=O to O=C(NC1CCCC1)N1CC(n2nccn2)C1, the Z score falls from 2.56 to -0.24.

From ChEMBL document CHEMBL4888484, “Replenishing the malaria drug discovery pipeline: Screening and hit evaluation of the MMV Hit Generation Library 1 (HGL1) against asexual blood stage Plasmodium falciparum ,using a nano luciferase reporter read-out” (2022)
